Test results published in PubChem BioAssay AID686978 (National Center for Advancing Translational Sciences (NCATS), 2013).
The campaign covered roughly 420,000 compounds. About 64,000 (15%) were called active. The shares of active, inactive and inconclusive entries below differ from those in the screen. Calls come from the whole dose curve; as a rule, active = well fitted inhibition curve with a large enough effect; inconclusive = small, poorly fitted or top-dose-only effect; inactive = flat fitted curve, though single readings scatter. Potencies beside an inconclusive call are fits to weak or partial responses and may not hold up.

assay: qHTS for Inhibitors of human tyrosyl-DNA phosphodiesterase 1 (TDP1): qHTS in cells in absence of CPT; settings: DT40 Tdp1-/- hTDP1 cells, no CPT, ATP luminescence, 48 h; activity change, negative = growth inhibition: at 46.2 µM (top of the series) unless noted; note: nearly all actives have a fitted effect of over 55% in size
Summary of the method: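 A cellular qHTS used chicken DT40 cells lacking endogenous Tdp1 but carrying stably transfected human TDP1. Compounds were applied without camptothecin, and cell growth kinetics were judged by ATP-dependent luminescence after ≥48 hr.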
% is set by controls: 0 for no effect and ±100 for the full control effect; potency is the fitted concentration of half-maximal effect; tags give direction and shape of the fitted curve.

| Structure (SMILES) | Potency | activity change, negative = growth inhibition |
| --- | --- | --- |
| CC(C)(C)NC(=O)C(OC(=O)c1cccs1)c1ccc(F)cc1 (centres undefined) | inactive | – |
| CCOC(=O)C1CCN(C(=O)Cn2nc(C)c3c(C)n(-c4ccccc4)nc3c2=O)CC1 | inactive | – |
| Cc1ccc(-n2nnc(-c3nsc(NC(=O)c4ccccc4C)n3)c2C)cc1Cl | active: 6.51 µM | – |
| CCOc1ccc(S(=O)(=O)N(CC)CC)cc1NC(=O)c1ccc(N2CCCC2=O)cc1 | inconclusive: 29.1 µM [inhibitor, single point] | – |
| CCCCCn1c(=O)[nH]c2cc(C(=O)N3CCN(C(=O)OCC)CC3)ccc2c1=O | inconclusive: 18.4 µM [inhibitor, single point] | – |
| O=C(Nc1ccc(F)cc1)N1CCN(c2ccc3nnc(-c4ccc(F)cc4)n3n2)CC1 | inconclusive: 29.1 µM [inhibitor, single point] | – |
| Cc1ccc(CNC(=O)C2CCN(C(=O)c3ccc(-n4ccc5ccccc54)s3)CC2)cc1 | inconclusive: 3.66 µM [inhibitor, full curve] | – |
| CCc1nc2ccc(C(=O)NCCCN3CCCC3=O)cn2c1N(C)C(=O)c1cccc(OC)c1 | inactive | – |
| O=C(N/N=C/c1ccco1)c1csc2c1CCCC2 | active: 5.8 µM | – |
| C[C@@H](NC(=O)c1nc[nH]c1C(=O)N[C@@H](Cc1ccccc1)C(=O)OCc1ccccc1)c1ccccc1 | active: 18.4 µM | – |
| O=C(CCS(=O)(=O)c1ccc(Br)cc1)N1CCN(c2ccccc2)CC1 | inconclusive: 18.4 µM [inhibitor, partial curve, poor fit] | – |
| COc1cc2c(cc1OC)[C@H](C)N(CC1C(=O)O[C@@H]3C[C@@]4(C)CCC[C@H](C)[C@@]45OC5[C@H]13)CC2 (some centres undefined) | – | inconclusive: -34.2% [inhibitor] [at 9.04 µM] |
| O=C(NCC12CC3CC(CC(C3)C1)C2)c1nn2c(c1Cl)NC(c1ccco1)CC2C(F)(F)F (centres undefined) | inconclusive: 29.1 µM [inhibitor, single point] | – |
| CNc1nc(-c2ccc3c(c2)CCN3S(=O)(=O)c2ccccc2)c(C)s1 | inconclusive: 8.2 µM [inhibitor, partial curve] | – |
| Cc1onc(-c2c(Cl)cccc2Cl)c1NC(=O)NNc1ccccc1 | – | inconclusive: -30.6% [inhibitor] |
| CCCS(=O)(=O)NC(=O)C1(C)CCN(C(=O)c2cccc(C)c2C)C1 (centres undefined) | inactive | – |
| O=C(NCC1CC1)Nc1ccccc1F | inactive | – |
| Cc1cc2n(n1)C(c1ccccc1)CC(c1ccc(Br)cc1)=N2 (centres undefined) | inconclusive: 20.6 µM [inhibitor, single point] | – |
| COC(=O)c1sccc1NC(=S)N1CCCC(C)C1 (centres undefined) | inconclusive: 5.8 µM [inhibitor, full curve, poor fit] | – |
